These results are taken from PMC4336329 (PLoS ONE, 2015).

Screen size: about 310,000 compounds; about 2,200 (0.71%) showed an effect of 50% or more. Effects have a minus sign here. The list shows a part of the results.

Sequence of human ether-à-go-go-related gene (hERG) potassium channel (Q12809 whole entry, looked up): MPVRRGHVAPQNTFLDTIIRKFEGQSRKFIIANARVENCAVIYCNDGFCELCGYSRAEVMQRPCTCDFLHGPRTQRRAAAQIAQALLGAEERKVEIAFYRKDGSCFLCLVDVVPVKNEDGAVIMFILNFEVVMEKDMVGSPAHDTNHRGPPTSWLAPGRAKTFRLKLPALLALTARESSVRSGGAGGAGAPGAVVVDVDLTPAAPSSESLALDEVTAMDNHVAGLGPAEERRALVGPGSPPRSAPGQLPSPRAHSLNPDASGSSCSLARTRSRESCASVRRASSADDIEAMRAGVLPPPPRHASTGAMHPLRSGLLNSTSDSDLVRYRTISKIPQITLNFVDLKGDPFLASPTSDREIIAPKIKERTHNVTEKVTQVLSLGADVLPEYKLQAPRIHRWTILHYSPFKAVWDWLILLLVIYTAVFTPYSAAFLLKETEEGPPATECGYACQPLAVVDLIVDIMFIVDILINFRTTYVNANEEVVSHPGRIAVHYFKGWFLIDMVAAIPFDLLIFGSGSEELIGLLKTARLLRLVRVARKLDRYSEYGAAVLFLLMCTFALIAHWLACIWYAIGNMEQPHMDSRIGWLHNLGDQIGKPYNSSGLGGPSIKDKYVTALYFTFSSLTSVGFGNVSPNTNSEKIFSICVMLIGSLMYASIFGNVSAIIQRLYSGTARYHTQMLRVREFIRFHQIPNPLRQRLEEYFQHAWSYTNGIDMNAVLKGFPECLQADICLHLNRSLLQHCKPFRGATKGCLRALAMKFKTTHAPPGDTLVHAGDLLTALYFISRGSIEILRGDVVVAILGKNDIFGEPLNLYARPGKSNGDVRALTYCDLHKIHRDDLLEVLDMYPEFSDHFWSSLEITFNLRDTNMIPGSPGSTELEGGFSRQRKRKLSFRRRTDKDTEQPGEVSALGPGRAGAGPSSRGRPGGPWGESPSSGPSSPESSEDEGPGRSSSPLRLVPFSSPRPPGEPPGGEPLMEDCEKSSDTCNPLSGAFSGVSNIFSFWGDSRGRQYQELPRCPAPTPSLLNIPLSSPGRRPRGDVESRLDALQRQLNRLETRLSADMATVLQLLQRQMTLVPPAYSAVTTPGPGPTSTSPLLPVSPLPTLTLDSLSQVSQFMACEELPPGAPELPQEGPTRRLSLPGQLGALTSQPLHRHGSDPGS

This test addresses human ether-à-go-go-related gene (hERG) potassium channel (human, UniProt Q12809). The test is described as follows: primary screen, population patch clamp on CHO cells stably expressing hERG.
In the case of `Cc1ccc(SCC(=O)Nc2c(Br)cnn2C)cc1`, the “hERG current change (%, negative = inhibition) at 1uM” value was 11.4%.
Under `COc1cccc(/C=N/NC(=S)Nc2cccc(C(=O)O)c2)c1O` stands 16.8%; under `COc1cccc(C(=O)Nc2ccc3nc(N4CCOCC4)cc(C)c3c2)c1`, -12.3%.
Then `COc1cc(OC)cc(C(=O)NNC(=O)CN2C(=O)NC3(CCCC3)C2=O)c1`, with 5.37%; and `O=C(CCCN1C(=O)/C(=C\c2ccccc2)SC1=S)Nc1ccc(C(=O)O)cc1`, with 14.1%; and `COc1ccc2cc(CN(CC3CCCO3)C(=S)Nc3ccccc3)c(=O)[nH]c2c1` (stereo not shown), with 6.42%.
Under `Cn1c(=O)c2nc(-c3ccccc3)oc2c2ccccc21` stands 11.2%; under `Cc1ccc(C(=O)NCCCn2ccnc2)cn1`, -0.918%; under `Cc1cc(C)cc(NC(=S)N(CCN2CCCCC2)Cc2ccco2)c1`, -21.8%.
For `C[C@@H]([C@@H](O)c1ccccc1)N(C)C(=O)C(N)Cc1ccccc1` (stereo partly shown), the “hERG current change (%, negative = inhibition) at 1uM” value is 7.52%.
In the case of `CCN1CCN(C(=O)COCc2cc(-c3ccc4c(c3)OCO4)on2)CC1`, the “hERG current change (%, negative = inhibition) at 1uM” value was -0.269%.
Then `Cn1ncc(Cl)c1C(=O)Nc1cc(C(F)(F)F)ccc1F`, with 24.3%.
Then `Cc1nn(-c2ccccc2)c(Cl)c1C(=O)N1CCN(C)CC1`, with 2.04%; and `Cc1nc2c(sc(=S)n2Cc2ccco2)c(=O)n1CC(=O)Nc1ccc(F)cc1`, with 5.48%.
Then `COc1ccccc1CCC(=O)Nc1ccc(OC)c(S(=O)(=O)N2CCCCC2)c1`, with -7.66%; and `Cc1ccc(N2C(=O)NC(=O)/C(=C/c3cnc(-c4ccccc4)nc3)C2=O)cc1C`, with 7.11%.
Turning to `O=C(CCN1C(=O)c2ccccc2C1=O)Nc1ccc(-c2nc3ccccc3o2)cc1`, the “hERG current change (%, negative = inhibition) at 1uM” value stood at 11.8%.
Then `O=C(COc1ccc(Cl)cc1)N1CCN(C(=O)c2ccccc2F)CC1`, with -2.94%; and `Cn1nc(C(F)(F)F)c2cc(NC(=O)OCc3ccc(F)cc3)sc21`, with 8.2%.
Then `COc1ccccc1CNC(=O)[C@H](C)NC(=O)C1CCN(C(=O)[C@@H](N)C(C)C)CC1`, with 11.2%; and `COc1ccc(/C=N/NC(=O)c2c(C)n(C)c3ccc(OC)cc23)c(OC)c1`, with 7.02%; and `O=C(Nc1ccon1)c1ccc2c(c1)OCO2`, with 4.41%.
Consider `COc1cc(CN2CCCCCC2)cc(OC)c1O`, for which the “hERG current change (%, negative = inhibition) at 1uM” value was determined as 10.8%.
Then `Cc1ccccc1S(=O)(=O)c1c(C)cc(C)n(C)c1=O`, with 4.08%.
For `O=C(NC(C(=O)c1ccccc1)N1CCOCC1)c1cccs1` (stereo not shown), the “hERG current change (%, negative = inhibition) at 1uM” value was -6.41%.
Then `COC(=O)c1cn(NC(=O)c2ccc(OC)c([N+](=O)[O-])c2)c(=O)c2ccccc12`, with 13.1%; and `N#Cc1ccccc1S(=O)(=O)N1CCN(C(=O)CN2CCCSc3ccccc32)CC1`, with -4.14%; and `Cc1nc([N+](=O)[O-])c(NCCO)n1Cc1ccccc1`, with 6.47%.
As for `COc1nc(-c2ccc(Cl)cc2Cl)nc2ccccc12`, the “hERG current change (%, negative = inhibition) at 1uM” value came to 9.76%.
Turning to `COc1ccc(CN2CCN(Cc3ccco3)CC2)c(OC)c1.O=C(O)C(=O)O`, the “hERG current change (%, negative = inhibition) at 1uM” value is listed as -17.9%.
`CCN1C(=O)c2ccccc2S(=O)(=O)c2ccc(C(=O)N3CCOCC3)cc21`: the “hERG current change (%, negative = inhibition) at 1uM” value worked out at 1.8%.
Then `CC(C)C[C@H]1CN=C(Nc2ccccc2)N1CCC1CCCCC1`, with -1.21%; and `CSc1ccccc1C(=O)Nc1cc2c(cc1C(=O)O)OCCCO2`, with 15.1%; and `O=C(COC(=O)CCC1CCCC1)Nc1ccc(F)cc1`, with 15.7%.
Then `NS(=O)(=O)c1ccc(CCNC(=O)c2ccc3nc4ccc(Cl)cc4c(=O)n3c2)cc1`, with 13%; and `CN(C)S(=O)(=O)c1ccc(C(=O)NCCSc2ccc(Br)cc2)cc1`, with -11%; and `C/C(=N\NC(=O)c1cc(C)nc2ccccc12)c1ccccn1`, with 5.58%.
`Cc1n[nH]c(=O)c2c(NC(=O)CSc3nc4ccccc4c(=O)n3C(C)C)oc(C)c12`: the “hERG current change (%, negative = inhibition) at 1uM” value turned out to be 14.6%.
Under `CC(Oc1cc2oc(=O)c3c(c2cc1Cl)CCCC3)C(=O)NCCN1CCOCC1` (stereo not shown) stands 5.55%.
Then `CCN1CCN(CC(=O)N2N=C(c3cccs3)CC2c2ccc(OC)c(OC)c2)C(=O)C1=O` (stereo not shown), with 15.5%; and `Cc1c(C(=O)Nc2ccc(OCc3ccccc3)cc2)cccc1[N+](=O)[O-]`, with 5.88%; and `COC(=O)C1=C(Nc2ccc(OC)cc2)C=C(C)C(C(=O)OC)C1c1ccc(C)cc1` (stereo not shown), with 16.5%.
In the case of `CC(C)(C)NC(=O)C(=O)N/N=C/c1cccs1`, the “hERG current change (%, negative = inhibition) at 1uM” value is reported as -5.31%.
Then `COC(=O)c1ccc2c(=O)[nH]c(COC(=O)c3c(-c4ccccc4Cl)noc3C)nc2c1`, with 8.66%; and `Cc1noc(C)c1S(=O)(=O)Nc1c(C)n(C)n(-c2ccccc2)c1=O`, with 14.4%.
On to `Cc1oc(C(C)(C)C)cc1C(=O)Nc1ccc(N2CCOCC2)cc1`, for which the “hERG current change (%, negative = inhibition) at 1uM” value is on record as 4.63%.
Under `CCC1CCCCN1C(=O)CSc1nnc(-c2ccc(OC)cc2)o1` (stereo not shown) stands 1.6%.
Regarding `CCC(C)NCCOCCOc1ccc(Cl)c(C)c1C.O=C(O)C(=O)O` (stereo not shown), the “hERG current change (%, negative = inhibition) at 1uM” value stood at 13%.
Under `CCOC(=O)c1c(C)nc(C)c(C(=O)OCC)c1-c1ccccc1` stands 0.12%; under `Cc1ccc(S(C)(=O)=O)cc1S(=O)(=O)Nc1ccccc1`, 2.79%; under `CCC(C)NC(=S)NNC(=O)c1ccc(C(C)(C)C)cc1` (stereo not shown), 20.2%.
Then `CCOc1ccc(C(=O)NC2CCN(CC(=O)NCc3ccccc3)CC2)cc1`, with -8.06%; and `CCCS(=O)(=O)n1nc(-c2ccccc2)cc1N`, with 15.4%.
Then `O=C(CCN1CCN(c2ccccc2)CC1)Nc1cccc(Br)c1`, with -12.8%.
With `Fc1cnc(Cl)nc1N1CCN(c2ccccc2)CC1`, the “hERG current change (%, negative = inhibition) at 1uM” value came to 11%.
Under `COc1ccc(-n2c3c(cc(C(=O)N4CCC(C)CC4)c2=O)C(=O)CC(C)(C)C3)cc1` stands 1.9%; under `Cc1cc(=O)oc2cc(NC(=O)CCC(=O)O)ccc12`, 3.82%; under `O=C(NC1CCCC1)C(c1ccncc1)N(Cc1ccccc1)C(=O)c1ccc(-c2ccccc2)[nH]1` (stereo not shown), 5.93%.
On to `COc1ccccc1-c1noc(CCC(=O)Nc2cccc(C)c2)n1`, for which the “hERG current change (%, negative = inhibition) at 1uM” value is 7.82%.
Then `O=C(COC(=O)Cn1cnc2ccccc2c1=O)NCCC1=CCCCC1`, with 6.61%; and `COc1cccc(-c2nn(C)c3sc(C(=O)N4CCN(c5ccccn5)CC4)cc23)c1`, with 6.12%.
Then `O=C1NC(=O)C(=Cc2cc(Cl)ccc2OCc2ccc(C(=O)O)cc2)C(=O)N1`, with 13%; and `CCc1n[nH]c(=S)n1/N=C/c1cc(OC)cc([N+](=O)[O-])c1O`, with 8.45%.
Under `CC(=O)OC1N=C(c2ccccc2Cl)c2cc(Br)ccc2N(C)C1=O` (stereo not shown) stands 6.22%.
Take `CCOc1ccc(N2C(=O)C3CC(C)=C(C)CC3C2=O)c([N+](=O)[O-])c1` (stereo not shown): the “hERG current change (%, negative = inhibition) at 1uM” value was 0.693%.
Under `CC(C)Nc1nnc(SC(C)C(=O)Nc2ccc(Cl)cn2)s1` (stereo not shown) stands 6.77%; under `C/C(=N\NC(=S)NCc1ccccc1)c1cccs1`, 5.43%; under `CNC(=O)N(C1=NCC(C)(C)S1)c1ccc(F)c(Cl)c1`, 15.7%.
Consider `O=C(c1ccc(Oc2ccccc2)cc1)c1nc2c(n1O)CCCC2`, for which the “hERG current change (%, negative = inhibition) at 1uM” value is on record as 13.1%.
Take `COc1ccc(OC)c(/C=C/C(=O)N(C)CC(=O)Nc2cc(C)ccc2C)c1`: the “hERG current change (%, negative = inhibition) at 1uM” value is -7.55%.
Under `C=C(C)c1cccc(C(C)(C)NC(=O)NCC2COCCO2)c1` (stereo not shown) stands 11.1%; under `C/C(=N/Nc1ccc(F)cc1)c1ccc(Cl)s1`, 11.3%.
Then `Cc1ccc(CNC(=O)C2CCN(S(=O)(=O)N3CC(C)CC(C)C3)CC2)cc1` (stereo not shown), with 12.5%; and `CC(OC(=O)C1CCCC1)C(=O)Nc1ccc(S(N)(=O)=O)cc1` (stereo not shown), with 14.6%.
In the case of `O=[N+]([O-])c1ccc(Nc2ccccc2)c2nonc12`, the “hERG current change (%, negative = inhibition) at 1uM” value worked out at 12.7%.
Then `O=C(Nc1cccc(C(=O)O)c1)/C(=C\c1ccc(F)cc1)NC(=O)c1ccco1`, with 12.1%; and `CCOc1ccc(Cc2n[nH]c(=S)n2N)cc1`, with 17.4%.
For the molecule `O=C(CC1SCCNC1=O)Nc1ccc(Cl)c(Cl)c1` (stereo not shown), the “hERG current change (%, negative = inhibition) at 1uM” value was 3.37%.
Under `Cc1ccccc1CN1CCc2cc([N+](=O)[O-])ccc21` stands 17.2%; under `Cc1nc2ncnn2c(N2CCN(S(=O)(=O)c3ccc(Br)cc3)CC2)c1C`, 16.9%; under `CCc1ccccc1N(CC(=O)NC1CCCCC1)C(=O)CNC(=O)c1ccco1`, 8.43%.
Under `COc1cccc2cc(C(=O)Nc3ccccc3C(=O)N3CCOCC3)oc12` stands -2.75%.
Under `Cc1c(S(=O)(=O)N(C)C2CCCCC2)c(=O)n(C)c(=O)n1C` stands 4.71%; under `CC1CCCCC1NC(=O)c1ccc(N2CCCC2=O)cc1` (stereo not shown), 3.76%; under `Cc1cccc(-c2nnc(SCC#N)n2-c2cccc(Cl)c2)c1`, 2.7%.
As to `CCCn1ncc([C@@H]2C[C@H]3CN(Cc4cccc(Cl)c4)C(=O)[C@]34CCCN24)c1C`, the “hERG current change (%, negative = inhibition) at 1uM” value is -8.01%.
Then `COc1ccc(NS(=O)(=O)c2cccc3cccnc23)cc1`, with 8.14%.
For `CCN(CC)C(=O)CSc1ncnc2c1cnn2Cc1ccccc1`, the “hERG current change (%, negative = inhibition) at 1uM” value is given as -0.877%.
